Source: a collection of fitness landscapes (doi:10.1016/j.celrep.2020.107928)
Over roughly 81,000 sequences, “one-hybrid fitness for binding parS DNA” has its median near -0.17; the highest 2% begin near 0.51. Some of the results follow.

B1: Caulobacter ParB omega fusion; a variant is named by its letters at X, in order, B8GW30 (parent)
chain: MESVVVGEPGMSEGRRGLGRGLSALLGEVDAAPAQAPGEQLGGSREAPIEILQRNPDQPRRTFREEDLEDLSNSIREKGVLQPILVRPSPDTAGEYQIVAGERAWRAAQRAGLKTVPIMVRELDDLAVLEIGIIENVQRADLNVLEEALSYKVLMEKFERTQENIAQTIGKSXSHVANXMRLLXLPDEVQSYLVSGELTAXHARAIAAAADPVALAKQIIEGGLSVRETEALARKAPNLSAGKSKGGRPPRVKDTDTQALESDLSSVLGLDVSIDHRGSTGTLTITYATLEQLDDLCNRLTRGI

Variants of: B1
Test: one-hybrid fitness for binding parS DNA (scaled: cognate 1, non-cognate 0); higher = stronger binding
Settings: with parS DNA site
Outline: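 Selection: bacterial one-hybrid in E. coli USO, HIS3 reporter with the site 19 bp from the promoter, 48 hours at 37°C on M9-minus-histidine plus 0.1 mM IPTG and 5 mM 3-AT. Libraries were Caulobacter ParB with four randomised specificity codons, sequenced on Illumina before and after selection. Fitness is the rescaled log change in variant-to-wild-type read ratio, anchored to the cognate and non-cognate sites.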

| Variant | one-hybrid fitness for binding parS DNA |
| --- | --- |
| ANHY | ≤ 0.2 |
| ATAF | ≤ 0.2 |
| SMHM | ≤ 0.2 |
| QAIL | ≤ 0.2 |
| RMIM | 0.324 |
| YTIG | ≤ 0.2 |
| TTKK | ≤ 0.2 |
| LFFS | ≤ 0.2 |
| GMVV | ≤ 0.2 |
| SMSL | ≤ 0.2 |
| SWTY | ≤ 0.2 |
| QHHL | ≤ 0.2 |
| WESR | ≤ 0.2 |
| DKAY | ≤ 0.2 |
| STAL | ≤ 0.2 |
| TSTK | ≤ 0.2 |
| NRCG | ≤ 0.2 |
| RHAW | 0.219 |
| CLAA | ≤ 0.2 |
| PWPD | ≤ 0.2 |
| KGTS | ≤ 0.2 |
| LYRV | ≤ 0.2 |
| SLRF | ≤ 0.2 |
| NLDG | ≤ 0.2 |
| TLDI | ≤ 0.2 |
| QPKS | ≤ 0.2 |

| Variant | one-hybrid fitness for binding parS DNA |
| --- | --- |
| IWRR | ≤ 0.2 |
| NLRV | ≤ 0.2 |
| CVKS | ≤ 0.2 |
| NKYF | ≤ 0.2 |
| NWHG | ≤ 0.2 |
| WTDT | ≤ 0.2 |
| GYPA | ≤ 0.2 |
| DLGV | ≤ 0.2 |
| MTRG | ≤ 0.2 |
| PWTY | ≤ 0.2 |
| CCHS | ≤ 0.2 |
| RMFV | ≤ 0.2 |
| CSHC | ≤ 0.2 |
| GSFS | ≤ 0.2 |
| NKVQ | ≤ 0.2 |
| CRDV | ≤ 0.2 |
| EPTR | ≤ 0.2 |
| CPAA | ≤ 0.2 |
| KRGM | ≤ 0.2 |
| DIRT | ≤ 0.2 |
| MVIP | ≤ 0.2 |
| NMQS | ≤ 0.2 |
| HVTI | ≤ 0.2 |
| KRSD | ≤ 0.2 |
| LPLW | ≤ 0.2 |
| FDAE | ≤ 0.2 |

| Variant | one-hybrid fitness for binding parS DNA |
| --- | --- |
| ACRC | ≤ 0.2 |
| SNEC | ≤ 0.2 |
| ETKS | ≤ 0.2 |
| ATMT | ≤ 0.2 |
| QWKF | ≤ 0.2 |
| PQRS | ≤ 0.2 |
| YTRC | ≤ 0.2 |
| WVMV | ≤ 0.2 |
| DMPT | ≤ 0.2 |
| GCLT | ≤ 0.2 |
| NIQM | ≤ 0.2 |
| RNKL | ≤ 0.2 |
| RDYS | ≤ 0.2 |
| SIEF | ≤ 0.2 |
| KTNQ | ≤ 0.2 |
| QNPN | ≤ 0.2 |
| RTWH | 0.254 |
| AKYS | ≤ 0.2 |
| TIYV | ≤ 0.2 |
| PRGP | ≤ 0.2 |
| PLNY | ≤ 0.2 |
| VRRK | ≤ 0.2 |
| TDSW | ≤ 0.2 |
| LGET | ≤ 0.2 |
| GISA | ≤ 0.2 |
| DGRF | ≤ 0.2 |

| Variant | one-hybrid fitness for binding parS DNA |
| --- | --- |
| VYQR | ≤ 0.2 |
| YVML | ≤ 0.2 |
| TNKH | ≤ 0.2 |
| QCFT | ≤ 0.2 |
| HKRV | ≤ 0.2 |
| YNAS | ≤ 0.2 |
| LYMT | ≤ 0.2 |
| VSVL | ≤ 0.2 |
| PVPR | ≤ 0.2 |
| YTCR | ≤ 0.2 |
| DCPY | ≤ 0.2 |
| YHKY | ≤ 0.2 |
| QRWS | ≤ 0.2 |
| RRGT | 0.566 |
| GYFS | ≤ 0.2 |
| CLEF | ≤ 0.2 |
| QVQN | ≤ 0.2 |
| DRIC | ≤ 0.2 |
| DQYD | ≤ 0.2 |
| HVLS | ≤ 0.2 |
| WNDI | ≤ 0.2 |
| RMHK | ≤ 0.2 |
| FNPM | ≤ 0.2 |
| VLVL | ≤ 0.2 |
| SSYF | ≤ 0.2 |
| YPGG | ≤ 0.2 |

| Variant | one-hybrid fitness for binding parS DNA |
| --- | --- |
| WENS | ≤ 0.2 |
| TGMF | ≤ 0.2 |
| VWNY | ≤ 0.2 |
| RPHF | ≤ 0.2 |
| EHKS | ≤ 0.2 |
| SSTL | ≤ 0.2 |
| QKWS | ≤ 0.2 |
| DMTR | ≤ 0.2 |
| CYTF | ≤ 0.2 |
| NCSM | ≤ 0.2 |
| PETF | ≤ 0.2 |
| RFGM | 0.273 |
| YHTP | ≤ 0.2 |
| PCPK | ≤ 0.2 |
| IVVF | ≤ 0.2 |
| DYFM | ≤ 0.2 |
| QVLW | ≤ 0.2 |
| MTYT | ≤ 0.2 |
| YACT | ≤ 0.2 |
| GSVR | ≤ 0.2 |
| DNLI | ≤ 0.2 |
| AHAP | ≤ 0.2 |
| HEQR | ≤ 0.2 |
| LWRR | ≤ 0.2 |
| LIHM | ≤ 0.2 |
| VSPW | ≤ 0.2 |

| Variant | one-hybrid fitness for binding parS DNA |
| --- | --- |
| TDIF | ≤ 0.2 |
| DQYT | ≤ 0.2 |
| RATR | ≤ 0.2 |
| PKPQ | ≤ 0.2 |
| TTHV | ≤ 0.2 |
| RDFI | ≤ 0.2 |
| PRRR | ≤ 0.2 |
| IGGI | ≤ 0.2 |
| YAHT | ≤ 0.2 |
| ARCN | ≤ 0.2 |
| VIKS | ≤ 0.2 |
| LVCF | ≤ 0.2 |
| MSSV | ≤ 0.2 |
| FDWS | ≤ 0.2 |
| QRTY | ≤ 0.2 |
| PYYI | ≤ 0.2 |
| RVNA | 0.602 |
| FVGG | ≤ 0.2 |
| GREM | ≤ 0.2 |
| ELMD | ≤ 0.2 |
| CHQG | 0.278 |
| DYLR | ≤ 0.2 |
| ELDC | ≤ 0.2 |
